# Screen size: about 360,000 compounds; about 740 (0.21%) were called active. This list was built around the results that the source calls inconclusive (neither active nor inactive); the mix of calls is not that of the screen. Calls follow the shape of the dose curve; as a rule, active = well fitted inhibition curve with a large enough effect; inconclusive = small, poorly fitted or top-dose-only effect; inactive = no such curve, though single readings can be large or run the other way. Potencies of inconclusive entries are left out as doubtful fits.
# Test system: Plasmodium falciparum AMA1 (3D7) - RON2 peptide interaction
# Assay: qHTS for Inhibitors of AMA1-RON; Towards Development of Antimalarial Drug Lead: Primary Screen; also: nearly all actives have a fitted effect of over 45% in size;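 as to activity change, negative = inhibition: 0% = vehicle wells and -100% = peptide control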
# Conditions: AlphaScreen AMA1-biotinylated RON2 peptide binding; activity change, negative = inhibition: at 58.2 µM (top of the series) unless noted
# In short: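 AMA1 (3D7) with his tag at 25 nM final met compounds first, then biotinylated RON2 peptide at 25 nM; detection used donor plus acceptor beads, 10 µg/mL apiece, read by AlphaScreen after 30 min at room temperature.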
# Potency is read from the fitted curve at half-maximal effect; tags tell the direction and shape of the fitted curve.
Structure (SMILES),Potency,"activity change, negative = inhibition"
Cc1ccc(CNc2ncc(-c3ccccc3)n2C)o1,"inconclusive [inhibitor, single point]",
Cc1ccc(C2=NOC(=O)/C2=C\c2ccc(C)o2)cc1,"inconclusive [inhibitor, partial curve]",
Cc1ccc(C)c(N2CCN(C(=O)CCCN3C(=S)NC(C)(C)CC3C)CC2)c1 (stereo not drawn),"inconclusive [inhibitor, partial curve]",
CCOC(=O)C1=C(C)N=c2s/c(=C/c3ccc(OCC(=O)O)cc3)c(=O)n2C1c1cc(OC)c(OC)c(OC)c1 (stereo not drawn),inactive,
COc1ccc(NC(=O)C2Cc3c(-c4ccccc4Oc4ccccc4)ccnc3O2)cc1OC (stereo not drawn),"inconclusive [inhibitor, single point]",
Cc1c(Cl)c([N+](=O)[O-])nn1CCCC(=O)N1CCN(c2ccccc2)CC1,,inconclusive: -3.13% [inhibitor]
Cc1ccc(-n2c(C)cc(C(=O)CSc3nncs3)c2C)cc1,inactive,
CC(C)n1c(-c2ccc(N(C)C)cc2)nc2ccccc21,"inconclusive [inhibitor, single point]",
O=C(OCc1cccc(C(F)(F)F)c1)c1cc([N+](=O)[O-])ccc1N1CCOCC1,"inconclusive [inhibitor, partial curve]",
CC1=C(O)C(=O)C(C2=C(O)C(=O)C(C)=C(O)C2=O)=C(O)C1=O,"inconclusive [inhibitor, full curve, poor fit]",
O=[N+]([O-])c1ccc(SCc2ccco2)cc1N1CCOCC1,"inconclusive [inhibitor, partial curve]",
Cc1ccc(S(=O)(=O)N2CCN(c3ccccc3)CC2)cc1C,"inconclusive [inhibitor, partial curve]",
CC1=NC(=O)C(N=Nc2ccccc2)N1c1ccccc1 (stereo not drawn),"inconclusive [inhibitor, full curve]",
Cn1cccc1/C=C(\C#N)c1ccccc1,"inconclusive [inhibitor, partial curve]",
COc1cccc(C(O)c2nc(-c3cccc(F)c3)cs2)c1 (stereo not drawn),inactive,
Cn1c(SC2C(=O)CC(C)(C)CC2=O)nnc1-c1ccco1,"inconclusive [inhibitor, partial curve]",
O=C(Cc1ccc(N(CCCl)CCCl)cc1)NC(Cc1ccc(Cl)cc1)C(=O)O (stereo not drawn),"inconclusive [inhibitor, single point]",
COc1cc(NC(=O)CNC(=O)Cn2cnc3sc(C)c(C)c3c2=O)cc(OC)c1OC,"inconclusive [inhibitor, single point]",
Cc1cc(SCC(=O)OCC(=O)N(C)c2ccccc2)nc2ccccc12,inactive,
CCOc1ccc(C(=O)N(Cc2ccc(N(C)C)cc2)C2CCS(=O)(=O)C2)cc1 (stereo not drawn),"inconclusive [inhibitor, partial curve, poor fit]",
Cc1cc(C(=O)CSc2nnc(-c3ccc(Cl)cc3)n2C)c(C)n1CC1CCCO1 (stereo not drawn),inactive,
c1ccc(CCn2nnnc2C(c2cccs2)N2CCN(Cc3ccc4c(c3)OCO4)CC2)cc1 (stereo not drawn),"inconclusive [inhibitor, single point]",
COc1ccc(/C=C(/NC(=O)c2ccco2)C(=O)NCc2ccco2)cc1,inactive,

Structure (SMILES),Potency,"activity change, negative = inhibition"
CNCc1ccccc1Sc1ccc(O)c(O)c1,"inconclusive [inhibitor, single point]",
CC(OC(=O)c1ccc(-c2ccc(O)cc2)cc1)C(=O)NC1CCCCC1C (stereo not drawn),inactive,
COc1ccc(N2CCN(C(=O)c3ccc(CS(=O)(=O)c4ccc(OC)cc4)o3)CC2)cc1,"inconclusive [inhibitor, single point]",
CCCn1c(N)c(N(CCOC)C(=O)COC(=O)c2ccccc2NCCO)c(=O)[nH]c1=O,"inconclusive [inhibitor, single point]",
COc1ccccc1Cc1c(-c2ccco2)nc2c3ccccc3ccn12,"inconclusive [inhibitor, partial curve]",
C/C(=N\NC(=O)c1cc(-c2ccc(C)s2)[nH]n1)c1ccco1,inactive,
CCOC(=O)c1c(C)[nH]c(C)c1C(=O)CSc1nc2ccccc2n1CC,inactive,
O=C(Oc1ccccc1Cl)c1ccc(N2CCOCC2)c([N+](=O)[O-])c1,"inconclusive [inhibitor, single point]",
O=c1c2c3c(sc2n2cnnc2n1Cc1ccccc1)CN(Cc1ccccc1)CC3,"inconclusive [inhibitor, single point]",
Cc1ccc(-n2c(=S)[nH]c3c(oc4ccccc43)c2=O)cc1C,,inactive: 47.1% [at 11.6 µM]
Cc1ccc(-c2cnc(SCC(=O)N3CCCc4ccccc43)n2C)cc1,"inconclusive [inhibitor, single point]",
COc1ccc(CCNCc2ccc(Br)cc2)cc1OC,"inconclusive [inhibitor, single point]",
COc1ccccc1Nc1ncccc1[N+](=O)[O-],"inconclusive [inhibitor, partial curve]",
CCOc1ccc(CCN2C(=S)N([C@@H](CC(C)C)CN3CCCC3CN3C(=S)NC[C@@H]3Cc3ccc(O)cc3)C[C@@H]2Cc2ccccc2)cc1 (stereo partly drawn),inactive,
CSc1ccc(CN2CCCN(C)CC2)cc1,"inconclusive [inhibitor, partial curve]",
CCN(C[C@H]1N[C@@](CC)(C(=O)OC)[C@H]2C(=O)N(Cc3ccccc3)C(=O)[C@@H]12)S(=O)(=O)c1ccc(OC(F)(F)F)cc1,inactive,
Cc1ccnc2c1ccc1cccnc12,"inconclusive [inhibitor, single point]",
O=C(C1=C(O)/C(=C/c2ccc(O)cc2)CCC1)C(F)(F)F,inactive,
Cc1ccc2c(CSc3nc4ccccc4c(=O)n3CCCO)cc(=O)oc2c1C,inactive,
C/C(=N/NC(=O)c1cc(O)c(O)c(O)c1)c1ccc([N+](=O)[O-])cc1,"inconclusive [inhibitor, partial curve]",
O=C(C=Cc1ccco1)c1cc(Cl)ccc1O,"inconclusive [inhibitor, single point]",
Cc1cc(S(=O)(=O)Nc2ccc(N(C)C)cc2)c(C)s1,"inconclusive [inhibitor, single point]",
O=C(Nc1ccc(F)cc1)Nc1cccnc1,inactive,

Structure (SMILES),Potency,"activity change, negative = inhibition"
COc1ccc(CCC(=O)NC2CCC(C)CC2)cc1 (stereo not drawn),"inconclusive [inhibitor, partial curve]",
CCN(CC)c1ccc(NC2=C(Cl)C(=O)c3ccccc3C2=O)cc1,active: 6.31 µM,
COc1ccc(-c2c(C#Cc3ccc(N(C)C)cc3)c3ccccc3n2C)cc1,"inconclusive [inhibitor, partial curve]",
CC1(C(=O)NS(=O)(=O)c2cccc(OC(F)F)c2)CCN1C(=O)c1ccccc1CCc1ccccc1 (stereo not drawn),inactive,
CC(C)c1ccc(NC(=S)Nc2cccc3ccccc23)cc1,inactive,
O=C(CSc1nnc(-c2c[nH]c3ccccc23)o1)c1ccc(-c2ccccc2)cc1,"inconclusive [inhibitor, partial curve]",
c1ccc(CCCN2CCN(CCOC(c3ccccc3)c3ccccc3)CC2)cc1,"inconclusive [inhibitor, single point]",
COc1ccc(-c2c3c(=O)n(C)c(=O)n(C)c3cn2N2CCOCC2)cc1,"inconclusive [inhibitor, partial curve]",
CCCN1CCC(N2CCN(c3ccc([N+](=O)[O-])cc3)CC2)CC1,"inconclusive [inhibitor, partial curve]",
CC(=O)Nc1ccc(S(=O)(=O)NC2=C(N3CCN(c4ccc(F)cc4)CC3)C(=O)c3ccccc3C2=O)cc1,"inconclusive [inhibitor, partial curve]",
S=C1NCN(Cc2ccco2)CN1c1ccccc1,inactive,
COc1ccc(S(=O)(=O)N2CCCC(C(=O)Nc3ccc4c(c3)OCCO4)C2)cc1 (stereo not drawn),"inconclusive [inhibitor, single point]",
CN(C)c1ccc(C2CC(=O)C=C(Nc3ccccc3N)C2)cc1 (stereo not drawn),inactive,
COc1ccc(N2CCN(C(C)C(=O)N3CCc4ccccc43)CC2)cc1 (stereo not drawn),"inconclusive [inhibitor, partial curve]",
CCOC(=O)c1c(NC(=O)CSc2nnc(Cc3csc(N)n3)n2C)sc(C)c1C,"inconclusive [inhibitor, single point]",
COc1ccc(C2=CC3=C(Br)C(=O)C(C)(OC(=O)C4CCCC4)C(=O)C3=CO2)cc1 (stereo not drawn),"inconclusive [inhibitor, partial curve]",
CN(Cc1ccccc1)C(=O)COC(=O)c1ccc(Br)o1,"inconclusive [inhibitor, full curve]",
FC(F)(F)c1ccc(CSc2nccn2-c2ccccc2)cc1,"inconclusive [inhibitor, single point]",
CN(C)S(=O)(=O)Oc1cccc(C(=O)Nc2ccccc2Cl)c1,inactive,
O=C(Cc1cccs1)N=Nc1c(O)[nH]c2ccccc12,"inconclusive [inhibitor, single point]",
COCCN1CCn2c(nc3cc(NC(=O)Cn4nc(C)c5ccccc5c4=O)ccc32)C1,inactive,
COc1ccc(N2CCN(C(C)C(=O)N3CC(C)OC(C)C3)CC2)cc1 (stereo not drawn),"inconclusive [inhibitor, partial curve]",

# — PubChem BioAssay AID720542 (National Center for Advancing Translational Sciences (NCATS), 2013)
